Experimental data as given in PubChem BioAssay AID624296 (National Center for Advancing Translational Sciences (NCATS), 2012).
Where “and” joins values, the source holds several entries; their conditions need not be identical. Equal values may be shown once. The whole screen tested about 350,000 compounds, of which about 9,900 (2.8%) were called active. Inconclusive results, whose numbers are uncertain, are shown with a selection of clear calls. Calls follow the shape of the dose curve; as a rule, active = well fitted activation curve with a large enough effect; inconclusive = small, poorly fitted or top-dose-only effect; inactive = no such curve, though single readings can be large or run the other way. Potencies of inconclusive entries are left out as doubtful fits.

experiment: A quantitative high throughput screen for small molecules that induce DNA re-replication in MCF 10a normal breast cells.; also: nearly all actives have a fitted effect of over 50% in size; conditions: MCF 10A DNA re-replication, Hoechst nuclear intensity, 48 h; series mostly up to 46.1 µM
Potency is read from the fitted curve at half-maximal effect; tags tell the direction and shape of the fitted curve.

Row | Structure (SMILES) | Potency
1 | COc1ccc(-n2c(O)c(/C=N/NS(=O)(=O)c3ccc(C)cc3)c3ccccc3c2=O)cc1OC | inconclusive [activator, single point]
2 | Cc1cccc(NC(=O)CN(C2=NC3CS(=O)(=O)CC3S2)c2ccccc2F)c1 (configuration not stated) | inactive
3 | Cc1ccc(SCCc2cc[n+](CC(=O)c3ccccc3)cc2)cc1 | inactive
4 | CC(C)(C)c1ccc(Cn2cnc(-c3ccc([N+](=O)[O-])cc3)c2)cc1 | inconclusive [activator, single point]
5 | CCOc1ccccc1Nc1nnc(SCC(=O)Nc2cccc(S(=O)(=O)NC3=NCCCCC3)c2)s1 | inactive
6 | O=C(NCC1(N2CCCCC2)CCCCC1)c1cccc(S(=O)(=O)Nc2ccccc2Cl)c1 | inactive
7 | CCc1ccccc1NC(=O)NCc1cccnc1 | inactive
8 | CC(C)[C@H](NC(=O)c1ccccc1)C(=O)OCC(=O)N1CCN(C(=O)c2ccco2)CC1 | inconclusive [activator, single point]
9 | S=C(NCCc1ccccc1)N/N=C/c1cccc(Cl)c1Cl | inconclusive [activator, single point]
10 | COC(=O)CCCN1C(=O)NC(c2ccc(-c3ccccc3)cc2)C(C(=O)OCc2ccccc2)=C1C (configuration not stated) | inconclusive [activator, full curve]
11 | Cc1cc2cc(CNC(=O)NC3CCCCC3)ccc2[nH]1 | inconclusive [activator, single point]
12 | CC(/C=N/NC(=O)c1cc(-c2ccc(C)o2)[nH]n1)=C\c1ccccc1 | active: 23.1 µM
13 | CC(C)CN(C(=O)COC(=O)C1CC1)c1c(N)n(Cc2ccccc2)c(=O)[nH]c1=O | inactive
14 | CSc1nc(-c2cccs2)c(C#N)c(=O)[nH]1 | inconclusive [activator, full curve, poor fit]
15 | O=C(Nc1cccc(NC(=O)c2cccs2)c1)c1ccc2c(c1)OCCO2 | inactive
16 | Cc1nc2ccccc2nc1Nc1cccc(Cl)c1 | inconclusive [activator, partial curve, poor fit]
17 | CC(=O)N1CCc2cc(S(=O)(=O)NC(C(=O)NCc3ccccc3)C(C)C)ccc21 (configuration not stated) | inconclusive [activator, single point]
18 | COc1ccc(C)cc1NC(=O)CNC(c1ccccc1)c1ccc(C)cc1 (configuration not stated) | inconclusive [activator, partial curve, poor fit]
19 | Cc1ccccc1OCc1nnc(SCC(=O)NCc2ccccc2)n1C | inconclusive [activator, single point]
20 | Cc1ccc(C)c(NC(=O)c2cc(=O)c3ccccc3o2)c1 | inconclusive [activator, single point]
21 | Cc1ccc(SC[C@H](C)CN2CC[C@H](C(C)(C)C)CCC2=O)cc1 | inactive
22 | CC1CCN(C(=O)CSc2nc3ccccc3s2)CC1 | inconclusive [activator, partial curve, poor fit]
23 | Cc1cc(/C=C2/C(=O)NN(c3ccccc3)C2=O)c(C)n1-c1ccc(O)cc1 | inconclusive [activator, single point]
24 | C=CC[C@@H](Cc1ccc(F)cc1)C(=O)OC[C@@H]1CCCN1C(=O)[C@H](CC=C)CC(=O)NCCO | inactive

Row | Structure (SMILES) | Potency
25 | CC(C)n1c(C(=O)OCC(=O)NCc2ccc3c(c2)OCO3)cc2sccc21 | active: 14.6 µM
26 | O=C(NCc1ccccc1)Nc1cccn(Cc2ccccc2F)c1=O | inactive
27 | CSc1ccccc1NC(=O)CN1CCCCC1C (configuration not stated) | inconclusive [activator, partial curve, poor fit]
28 | Clc1ccc(OCCN2CCCCC2)c(Cl)c1 | inactive
29 | Cc1ccc(S(=O)(=O)N2CCN(Cc3nnc(-c4c(-c5ccccc5)noc4C)o3)CC2)cc1 | inconclusive [activator, single point]
30 | Cc1ccc2c(C)c(C(=O)N(Cc3ccncc3)CC3CCCO3)oc2c1C (configuration not stated) | inconclusive [activator, partial curve]
31 | Cc1cccc(NC(=O)CN2C(=O)NC(C)(c3ccc4ccccc4c3)C2=O)n1 (configuration not stated) | inactive
32 | Cc1onc(-c2ccccc2Cl)c1C(=O)Oc1cc(N)n(S(=O)(=O)c2ccc(F)cc2)n1 | inconclusive [activator, single point]
33 | O=C(Cn1ncc2c3ccccc3n(Cc3ccccc3)c2c1=O)NCCCN1CCCC1 | inconclusive [activator, single point]
34 | CCOC(=O)C1CCN(C(=O)c2sc3nc(C)nc(N4CCC(C)CC4)c3c2C)CC1 | inactive
35 | Cn1c2ccccc2c2n[nH]c(=S)nc21 | inconclusive [activator, single point]
36 | O=S(=O)(Nn1cnnc1)c1ccc(F)cc1 | active: 2.31 µM
37 | Cc1c(Cl)c([N+](=O)[O-])nn1Cc1ccc(C(=O)Nc2ccc(Cl)cn2)o1 | inconclusive [activator, single point]
38 | CN(C)c1ccc(C2NC(=O)c3ccccc3N2)cc1 (configuration not stated) | inconclusive [activator, partial curve, poor fit]
39 | COc1ccc(Cn2c(=O)cc(N)n(-c3ccccc3C)c2=O)cc1 | inconclusive [activator, single point]
40 | COc1ccc(/C=C(/NC(=O)c2ccc(OC)cc2)C(=O)NCCc2c[nH]c3ccccc23)cc1 | inconclusive [activator, partial curve, poor fit]
41 | Cc1ccc(NC(=O)CCCn2c(=S)[nH]c3ccsc3c2=O)cc1C | inconclusive [activator, partial curve, poor fit]
42 | Fc1ccccc1C1CC(c2ccco2)=Nc2ccccc2S1 (configuration not stated) | inconclusive [activator, partial curve, poor fit]
43 | CC1CCc2nc(/C(C#N)=C/c3cccnc3)sc2C1 (configuration not stated) | active: 20.6 µM
44 | COc1ccccc1/C=C/CN1CCN(Cc2ccc(C)o2)C(CCO)C1 (configuration not stated) | inactive
45 | CCn1c2ccccc2c2nnc(SCC(=O)c3ccccc3)nc21 | inconclusive [activator, partial curve, poor fit]
46 | Cc1csc(SCC(=O)NC2CCS(=O)(=O)C2)n1 (configuration not stated) | inactive
47 | CCCOc1ccc(-c2nc(C#N)c(NCCCn3ccnc3)o2)cc1 | inconclusive [activator, partial curve, poor fit]
48 | CCOc1ccc(N2CC(C(=O)N3CCCCCC3)CC2=O)cc1 (configuration not stated) | inconclusive [activator, single point]

Row | Structure (SMILES) | Potency
49 | Cc1[nH]n(-c2ccccc2)c(=O)c1/C=N/NC(=O)c1ccccc1F | inconclusive [activator, single point]
50 | CC(=O)Nc1cccc(C(=O)/C=C/c2cccs2)c1 | inconclusive [activator, partial curve, poor fit]
51 | CCOc1ccc(S(=O)(=O)NCc2cccnc2)c2ccccc12 | inactive
52 | CCn1c(=O)c2sccc2n(CC(=O)NCCC2=CCCCC2)c1=O | inconclusive [activator, partial curve, poor fit]
53 | CCCOc1ccc2nc(NC(=O)OC)[nH]c2c1 | active: 944 nM and active: 4.61 µM
54 | C/C(=N\NC(=O)Cc1ccccc1)c1cccs1 | active: 18.4 µM
55 | COc1ccc(-c2csc(/C(C#N)=C/Nc3ccc4c(c3)OCCO4)n2)cc1 | active: 2.06 µM
56 | COc1cc(/C=C/C(=O)O)cc(S(=O)(=O)Nc2cccc(SC)c2)c1OC | inactive
57 | O=c1c(C(c2ccccc2)c2c(O)sc3ccccc3c2=O)c(O)sc2ccccc12 | inactive
58 | CCOC(=O)c1cc2sccc2n1CC(=O)N1c2ccccc2CC1C (configuration not stated) | inactive
59 | CCN(c1cccc(C)c1)S(=O)(=O)c1nnc(NC(=O)c2ccco2)s1 | inactive
60 | CCOc1ccc(-c2nnc(-c3snc(-c4ccc(F)cc4)c3N=CN(C)C)o2)cc1 | inconclusive [activator, full curve, poor fit]
61 | Cc1ccccc1NC(=O)OCc1cccnc1Sc1ccc(Cl)cc1 | inactive
62 | C/C(=N\NC(=O)c1ccc(Cl)cc1)c1ccccn1 | active: 3.66 µM
63 | CCNC(=O)N(C)C[C@H]1N[C@@](Cc2ccccc2)(C(=O)OC)[C@H]2C(=O)N(C)C(=O)[C@@H]12 | inconclusive [activator, full curve, poor fit]
64 | CCN(CC)CCn1c(=N)n(CCO)c2ccccc21 | inactive
65 | CCCOc1ccc(-c2nc3c(c(=O)[nH]c(=O)n3Cc3ccccc3)n2CCO)cc1OCC | inactive
66 | CCOC(=O)N1CCN(CCC(=O)Nc2ccc(OC(F)(F)F)cc2)CC1 | inconclusive [activator, partial curve, poor fit]
67 | CC1CN(CCOc2ccccc2C(C)C)CC(C)O1 (configuration not stated) | inconclusive [activator, single point]
68 | COc1ccc(CCN2C(=O)CC(Cc3ccc(C)cc3)C2=O)cc1OC (configuration not stated) | inconclusive [activator, single point]
69 | Cc1c2c(n3c(nc4ccccc43)c1C#N)N(CCN1CCOCC1)CC2 | inconclusive [activator, single point]
70 | NNC(=O)CC12CC3CC(C1)CC(n1ncnn1)(C3)C2 | inactive
71 | CCOc1ccc(NC(=O)CN(C)C(=O)CCCOc2ccc(Cl)c(C)c2)cc1OCC | inconclusive [activator, single point]
72 | Cc1ccccc1NC(=O)CC1(c2ccc(N(C)C)cc2)C(=O)c2ccccc2C1=O | inconclusive [activator, partial curve, poor fit]
